Hit rate of the full screen: of about 310,000 compounds, about 14,000 (4.5%) showed an effect of 50% or more. The effect is printed as a negative number. This is one part of the list.
target: human ether-à-go-go-related gene (hERG) potassium channel (human, UniProt Q12809); assay: primary screen, population patch clamp on CHO cells stably expressing hERG
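Further: peak tail current of the secondary pulse compared with the same well before compound.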

Chain of human ether-à-go-go-related gene (hERG) potassium channel (Q12809 whole entry, looked up): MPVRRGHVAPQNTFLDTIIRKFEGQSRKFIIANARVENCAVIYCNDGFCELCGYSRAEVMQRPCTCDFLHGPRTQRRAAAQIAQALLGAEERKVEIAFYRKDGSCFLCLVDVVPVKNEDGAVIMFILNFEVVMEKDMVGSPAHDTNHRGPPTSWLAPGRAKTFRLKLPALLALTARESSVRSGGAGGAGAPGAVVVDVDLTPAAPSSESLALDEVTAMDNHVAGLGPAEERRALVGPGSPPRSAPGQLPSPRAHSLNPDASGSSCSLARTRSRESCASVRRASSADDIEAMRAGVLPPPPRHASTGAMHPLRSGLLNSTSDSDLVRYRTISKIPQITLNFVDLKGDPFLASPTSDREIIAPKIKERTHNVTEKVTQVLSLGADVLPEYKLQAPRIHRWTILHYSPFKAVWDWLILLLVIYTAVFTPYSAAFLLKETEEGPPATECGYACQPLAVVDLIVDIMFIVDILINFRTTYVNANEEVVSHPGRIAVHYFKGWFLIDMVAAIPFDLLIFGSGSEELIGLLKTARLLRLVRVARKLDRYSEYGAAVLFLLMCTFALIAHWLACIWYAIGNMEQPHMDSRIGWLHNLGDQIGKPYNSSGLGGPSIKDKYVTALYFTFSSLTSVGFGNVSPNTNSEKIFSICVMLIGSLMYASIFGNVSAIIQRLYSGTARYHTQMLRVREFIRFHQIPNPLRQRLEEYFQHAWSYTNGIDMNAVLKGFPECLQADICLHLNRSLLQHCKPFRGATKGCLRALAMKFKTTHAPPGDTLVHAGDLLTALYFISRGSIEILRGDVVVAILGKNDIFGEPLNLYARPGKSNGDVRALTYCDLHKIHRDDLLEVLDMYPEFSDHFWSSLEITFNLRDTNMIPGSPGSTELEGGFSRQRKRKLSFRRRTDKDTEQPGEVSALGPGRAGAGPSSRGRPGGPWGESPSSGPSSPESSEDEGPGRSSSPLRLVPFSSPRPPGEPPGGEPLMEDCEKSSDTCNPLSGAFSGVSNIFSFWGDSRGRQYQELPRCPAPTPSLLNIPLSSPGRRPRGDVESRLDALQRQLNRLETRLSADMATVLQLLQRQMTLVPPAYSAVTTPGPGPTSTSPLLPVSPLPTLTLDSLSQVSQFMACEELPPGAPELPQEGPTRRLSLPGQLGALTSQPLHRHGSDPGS

SMILES	hERG current change (%, negative = inhibition) at 10uM
O=C(Nc1ccc(Cl)cc1)C1CCN(C(=O)c2cccs2)CC1	-16.2%
C#CCn1c(S(=O)(=O)Cc2ccc(F)cc2)nc(-c2ccccc2)c1-c1ccccc1	-15.9%
COC(=O)CSc1nnc(CNC(=O)c2ccc(S(=O)(=O)N(C)C)cc2)n1C	12.8%
Cc1cc(C(F)F)nn1CC(=O)NC1CCCCCC1	11.9%
Cc1ccc(S(=O)(=O)c2c(C)cc(C)nc2Oc2cccc(C)c2C)cc1	8.59%
CCCCn1c(CNC(=O)c2cccs2)nc2ccccc21	-30.2%
COc1ccc(Nc2nc(-c3cccc([N+](=O)[O-])c3)nc3ccccc23)cc1	-5.91%
CN1CCN(c2ccc3c(c2)S(=O)(=O)c2ccccc2C3=O)CC1	-23.4%
Cc1ccc(NC(=O)CCN2C(=O)c3ccncc3C2=O)cc1	8.48%
CCn1c(N2CCN(C(=O)c3ccco3)CC2)nc2ccccc21	-50.7%
Cc1ccc(C(=O)NC(=S)Nc2ccccc2C(F)(F)F)c(C)c1	14.1%
Cc1ccccc1CN1CCC(n2nccc2NC(=O)c2ccc3c(c2)OCO3)CC1	-9.06%
Cc1nc2ncnn2c(N2CCC(C(=O)NCC3CCCO3)CC2)c1Cc1ccccc1 (stereo not drawn)	-17.6%
Cc1ccccc1OCCOc1ccccc1C=C(C#N)C#N	24.5%
Cc1ccc(NC(=O)CC2COc3ccccc3O2)cc1 (stereo not drawn)	1.47%
O=C(CCC(=O)NC1CCCCC1)NCc1ccc(F)cc1	-1.02%
O=C(O)c1ccc(S(=O)(=O)Cc2ccccc2)cc1	10.9%
CCOC(=O)c1c(/N=C/c2cc(C)ccc2O)sc2c1CCN(C)C2	1.55%
CC(=O)Nc1cc(C(=O)OC(C(=O)c2ccccc2)c2ccccc2)ccc1C (stereo not drawn)	1.24%
O=C(Nc1ccc(Br)cc1)c1cccc(N2C(=O)CCC2=O)c1	6.71%
COc1cc2c(C(=O)N3CCN(c4ccccc4F)CC3)cn(C)c(=O)c2cc1OC	-33.1%
COC(=O)C1=C(c2ccc(OC(F)(F)F)cc2)C[C@@H]2CC[C@H]1N2C(=O)NCc1ccc(F)cc1	-39.5%
O=C1/C(=C\c2cccs2)SC(=S)N1C1CCS(=O)(=O)C1 (stereo not drawn)	9.01%

SMILES	hERG current change (%, negative = inhibition) at 10uM
N#CC1(NC(=O)CN2C(=O)c3ccccc3C2=O)CCCCC1	-3.31%
COc1cc(C(=O)NNC(=S)NC(=O)c2ccc(Cl)cc2)cc(OC)c1OC	4.79%
N#Cc1c(NC(=O)CN2CCCCC2)sc2c1CCC2	8.67%
Cc1ccc(Sc2c(C#N)c(-c3ccccc3)nn2C)cc1	-16.1%
COC(=O)Cc1c(C)nc2nc(Cc3ccccc3)[nH]n2c1=O	10.2%
Cc1cc(C)nc(-n2nc(C)cc2NC(=O)CN2CCC(C)CC2)n1	-65.6%
CCOC(=O)c1c(NC(=O)COc2ncnc3ccccc23)sc(C)c1CC	-12.5%
CC(C)CC1=NN(C(=O)c2cccnc2)C(O)(C(F)(F)F)C1 (stereo not drawn)	15.1%
Cc1ccccc1OCc1ccc(C(=O)N2CCOCC2)o1	6.86%
O=[N+]([O-])c1ccc(N2CCc3ccccc3C2)nc1	-15.2%
COc1ccccc1OCC(=O)N1CCNC1=O	-8.41%
Cc1onc(-c2ccccc2)c1-c1ccc(S(N)(=O)=O)cc1	-18.3%
COC(=O)c1cc(NC(=O)Cc2ccccc2[N+](=O)[O-])cc(C(=O)OC)c1	10.9%
O=C(CN1CCCCCC1)Nc1ccc(Cl)cc1F	-2.05%
CCCc1cc(Nc2cccc(OC)c2)n2ncnc2n1	-28.5%
Cc1ccc2nc(SCC(=O)Nc3cccc([N+](=O)[O-])c3)[nH]c2c1	-11.7%
Cc1ccccc1NC(=O)C1C2/C=C\CCCCC21 (stereo not drawn)	-3.18%
O=C(COc1ccc(F)cc1)N(Cc1cccc(Br)c1)C1CCS(=O)(=O)C1 (stereo not drawn)	-24.4%
COc1cc(OC)cc(-c2c(-c3ccc(F)cc3)c3cc(Br)ccc3n2C)c1	-20.1%
O=C(CNC(=S)N(CCCN1CCOCC1)Cc1cccs1)NC1CCCCCCC1	-61.1%
Cc1ccc(/C=N/NC(=O)c2c[nH]c3ccccc23)s1	-4.28%
O=C(CN1C(=O)/C(=C/c2cccc(Br)c2)SC1=S)NCCCN1CCOCC1	5.42%

Source: PMC4336329 (PLoS ONE, 2015)
